From PubChem BioAssay AID1347120 (National Center for Advancing Translational Sciences (NCATS), 2019)
About 930 (0.24%) of roughly 390,000 compounds were called active. This list was built around the results that the source calls inconclusive (neither active nor inactive); the mix of calls is not that of the screen. The call rests on the fitted dose curve; in most records, active means well fitted activation curve with a large enough effect; inconclusive means small, poorly fitted or top-dose-only effect; inactive means no such curve, though single readings can be large or run the other way. Potencies beside an inconclusive call are fits to weak or partial responses and may not hold up.
Potency means the concentration at half of the fitted maximal effect; tags describe the fitted curve by direction and shape.

Experiment: qHTS for Suppressors of FUS Proteinopathy: Primary screen using FUS-linked yeast assay; further: nearly all actives have a fitted effect of over 55% in size;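 on growth rescue (activation): plate controls were DMSO vehicle for no effect and reference control for full effect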
Conditions: S. cerevisiae FUS-expressing, OD600, 24 h; Potency: growth rescue; growth rescue (activation): at 76.6 µM (top of the series)
Method in brief: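 Absorbance at 600 nm, taken 24hr after compound addition, measured rescue of FUS-yeast growth at 30C. Induction used 2% galactose with seeding at OD 0.005. Controls: CP55940 from 92uM final, DMSO only.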
For Cc1nc(N2CCOCC2)[nH]c(=O)c1CCC(C)C, the growth rescue (activation) was inconclusive: 90.3% [activator].
With CCOc1ccccc1-n1nnnc1SCC(=O)NC(=O)NCc1ccco1 the Potency was “inactive”.
For CC(=O)CC(C)(C)S(=O)(=O)c1ccc(Oc2ccc(S(=O)(=O)C(C)(C)CC(C)=O)cc2)cc1, the Potency was inconclusive: 11.2 µM [activator, partial curve].
With O=C(c1cc2ccc3cccnc3c2[nH]1)N1CCN(c2cccc(Cl)c2)CC1 the Potency was inconclusive: 25.1 µM [activator, partial curve, poor fit].
With COc1ccc(C(C(=O)NC2CCCC2)n2c(CSCCOc3ccccc3)nc3ccccc32)cc1 (configuration not stated) the Potency was active: 17.8 µM.
For COc1ccc2c(c1)CCCN2C(=O)C1CCCN(S(=O)(=O)c2c(C(C)C)cc(C(C)C)cc2C(C)C)C1 (configuration not stated), the Potency was “inactive”.
For CCOc1ccc(Br)cc1S(=O)(=O)Nc1ccc(C(=O)OCC(=O)Nc2ccc(C#N)cc2)cc1, the Potency was inconclusive: 10 µM [activator, full curve, poor fit].
For Cc1ccc2cc(C(c3nnnn3Cc3ccccc3)N3CCc4ccccc43)c(=O)[nH]c2c1 (configuration not stated), the Potency was inconclusive: 31.6 µM [activator, single point].
In the case of Cc1ccc(NC(=O)C(NC2CCCc3ccccc32)c2ccccc2)cc1Cl (configuration not stated), the Potency is reported as inconclusive: 50.1 µM [activator, single point].
With Cc1ccc(S(=O)(=O)NC(=S)NC2CCCCC2)cc1 the Potency was “inactive”.
With O=c1oc2ccccc2cc1-c1nc(-c2cccs2)no1 the Potency was “inactive”.
In the case of O=C(c1cc2cc(F)ccc2[nH]1)N1CCN(c2cccc(Cl)c2)CC1, the Potency is reported as “inactive”.
For C=Cc1ccc(C(=O)N(Cc2ccc(F)cc2)C(C(=O)N(C)C2CCCC2)c2ccc(OC)c(OC)c2)cc1 (configuration not stated), the Potency was inconclusive: 35.5 µM [activator, partial curve, poor fit].
With Cc1cccc(N2CCN(C(=O)c3cc4ccc5cccnc5c4[nH]3)CC2C)c1 (configuration not stated) the Potency was inconclusive: 44.7 µM [activator, single point].
In the case of COc1cccc(-c2nn(-c3ccc(C)cc3)cc2C(=O)N2CCc3cc(OC)c(OC)cc3C2)c1, the Potency is reported as inconclusive: 22.4 µM [activator, partial curve, poor fit].
In the case of CCOc1cc(C(c2c(C)[nH][nH]c2=O)c2c(C)[nH][nH]c2=O)ccc1OS(=O)(=O)c1ccc(C)cc1, the Potency is reported as inconclusive: 44.7 µM [activator, partial curve, poor fit].
For CCc1ccccc1N(CC)C(=O)C1CCN(c2ncnc3c2nc2n3CCCCC2)CC1, the Potency was inconclusive: 10 µM [activator, partial curve].
